Reference: PubChem BioAssay AID1460 (National Center for Advancing Translational Sciences (NCATS), 2008)
“And” between values parts separate entries of the source, which are not always exact repeats. Identical values can stand only once. The campaign covered roughly 270,000 compounds. About 5,800 (2.1%) were called active. This list was built around the results that the source calls inconclusive (neither active nor inactive); the mix of calls is not that of the screen. Calls follow the shape of the dose curve; as a rule, active = well fitted inhibition curve with a large enough effect; inconclusive = small, poorly fitted or top-dose-only effect; inactive = flat fitted curve, though single readings scatter. A potency beside an inconclusive call is a rough fit, not a confirmed value.

target: Microtubule-associated protein tau (Homo sapiens) (UniProt P10636); test: qHTS for Inhibitors of Tau Fibril Formation, Thioflavin T Binding; settings: recombinant tau K18 P301L, heparin-induced fibrillization, ThT fluorescence; series mostly up to 57.4 µM; activity, negative = inhibition: at the top concentration; also: nearly all actives have a fitted effect of over 55% in size
UniProt P10636, sequence (P10636 whole entry, looked up): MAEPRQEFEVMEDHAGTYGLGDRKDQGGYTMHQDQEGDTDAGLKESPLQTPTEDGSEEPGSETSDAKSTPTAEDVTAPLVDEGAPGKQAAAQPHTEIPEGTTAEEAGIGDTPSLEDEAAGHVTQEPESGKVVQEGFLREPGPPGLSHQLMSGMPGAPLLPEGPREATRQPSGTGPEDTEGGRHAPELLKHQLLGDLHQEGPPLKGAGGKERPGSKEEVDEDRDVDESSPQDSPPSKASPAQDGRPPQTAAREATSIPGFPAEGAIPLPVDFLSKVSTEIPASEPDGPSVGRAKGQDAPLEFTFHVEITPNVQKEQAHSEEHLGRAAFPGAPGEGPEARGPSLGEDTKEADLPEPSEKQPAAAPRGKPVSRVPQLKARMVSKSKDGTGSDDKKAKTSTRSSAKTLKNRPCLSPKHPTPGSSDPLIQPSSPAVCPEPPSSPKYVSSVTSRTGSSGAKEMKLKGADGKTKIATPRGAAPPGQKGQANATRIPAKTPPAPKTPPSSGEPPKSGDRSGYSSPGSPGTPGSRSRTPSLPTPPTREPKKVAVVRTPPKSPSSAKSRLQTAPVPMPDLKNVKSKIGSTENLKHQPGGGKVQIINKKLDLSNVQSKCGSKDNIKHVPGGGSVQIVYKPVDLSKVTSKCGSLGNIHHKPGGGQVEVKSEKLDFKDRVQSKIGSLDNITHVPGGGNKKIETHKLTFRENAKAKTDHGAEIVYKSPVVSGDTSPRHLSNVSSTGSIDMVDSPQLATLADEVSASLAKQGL
Outline: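 Fibril formation assay: tau K18 P301L at 15 uM with trace Alexa 594 label, heparin inducer 20 uM, pH 7 sodium acetate buffer, 37 C for 6 hr; endpoint ThT signal.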
% is scaled to controls: 0 for no effect and ±100 for the full control effect; potency is read from the fitted curve at half-maximal effect; tags tell the direction and shape of the fitted curve.

SMILES | Potency | activity, negative = inhibition
c1ccc(-c2nc(N3CCOCC3)s[n+]2-c2ccccc2)cc1 | inconclusive: 17.8 µM [inhibitor, partial curve] | –
c1ccc2c(c1)OCC(C1=NCCN1)O2 (stereo not drawn) | inactive and inconclusive: 22.4 µM [inhibitor, single point] and inconclusive: 31.6 µM [inhibitor, single point] | –
CCOc1cccc(OCC)c2c(C)[n+](CC3CCCO3)c(C)c1-2 (stereo not drawn) | active: 20 µM | –
CC1OC(O[C@@H]2C(O)CC(O[C@@H]3C(O)C[C@@H](OC4CC[C@]5(C)[C@H](CC[C@H]6[C@@H]5CC[C@]5(C)C(C7=CC(=O)OC7)C(O)C[C@@]65O)C4)OC3C)OC2C)CC(O)C1O (stereo partly drawn) | inconclusive: 14.1 µM [inhibitor, partial curve] | –
CN(C)c1ccc(-[n+]2c(-c3ccccc3)cc(-c3ccccc3)cc2-c2ccccc2)cc1 | inconclusive: 14.1 µM [inhibitor, partial curve] | –
NS(=O)(=O)c1ccc(N=Nc2c(O)[nH]c(=S)[nH]c2=O)cc1 | active: 5.62 µM | –
O=C1CC(N2CC=C(c3ccc(F)cc3)CC2)C(=O)N1c1ccc(F)cc1 (stereo not drawn) | active: 31.6 µM | –
CCCc1nnc(NC(=O)CCC(=O)N2CCN(CCOC(c3ccccc3)c3ccccc3)CC2)s1 | – | inactive: -17.4%
CC(=O)c1ccc2c(c1)C1C(Cl)C(Sc3ccccc3[N+](=O)[O-])CC1C(C(=O)O)N2 (stereo not drawn) | inconclusive: 3.98 µM [inhibitor, full curve] | –
Cc1ccc(C(=O)C2C(=O)c3ccccc3C2=O)cc1 | inconclusive: 25.1 µM [inhibitor, single point] | –
Cn1c(O)c(C2=NN(C(=O)CCl)C(c3ccccc3)C2)c(=O)n(C)c1=O (stereo not drawn) | inconclusive: 11.2 µM [inhibitor, partial curve, poor fit] | –
CC(C)C(O)(C(=O)OC[C@@H]1CC[N+]2([O-])CCCC12)C(C)O (stereo partly drawn) | – | inactive: -1.8%
N#Cc1c(Cl)c(Cl)c(Cl)c(C#N)c1Cl | active: 2.24 µM | –
CCOC(=O)c1ccc(NC(=O)CSc2ccc(-c3cccnc3)nn2)cc1 | inconclusive: 0.282 µM [inhibitor, full curve] | –
O=C(O)CNC(=O)C(CS)Cc1ccccc1 (stereo not drawn) | inconclusive: 39.8 µM [inhibitor, single point] | –
CN1CCC2(CC1)C(C#N)=C(N)NC(S)=C2C#N | active: 22.4 µM | –
COC(=O)C(O)(c1c(C)[nH]n(-c2ccccc2)c1=O)C(F)(F)F (stereo not drawn) | inconclusive: 8.91 µM [inhibitor, partial curve] | –
Cc1cc(C)nc(OC(=O)c2ccc(Cl)cc2Cl)n1 | inconclusive: 28.2 µM [inhibitor, single point] | –
Cc1nnc2n1-c1sc(CCC(=O)N3CCOCC3)cc1C(c1ccccc1Cl)=NC2 | – | inactive: -12.3%
O=[N+]([O-])c1ccc(-c2[se]c3ccccc3c2I)cc1 | inconclusive: 8.91 µM [inhibitor, partial curve] | –
O=[N+]([O-])c1ccc(N2CCNCC2)cc1N1CCCCCC1 | inconclusive: 17.8 µM [inhibitor, partial curve] | –

SMILES | Potency | activity, negative = inhibition
O=C1NC(=O)[C@]2(Cc3ccccc3N3CCN(c4ccccc4)CC32)C(=O)N1c1ccccc1 (stereo partly drawn) | inconclusive: 20 µM [inhibitor, partial curve] | –
C/C=C(/C)C(=O)O[C@H]1C(C)=C2[C@H]([C@@H]1OC(=O)CCCCCCC)[C@@](C)(OC(C)=O)C[C@H](OC(=O)CCC)[C@@]1(O)[C@H]2OC(=O)[C@@]1(C)O | inconclusive: 28.2 µM [inhibitor, single point] and inconclusive: 44.7 µM [inhibitor, single point] | –
Cc1o[nH]c(=O)c1C[C@H](N)C(=O)O | inactive and inconclusive: 3.16 µM [inhibitor, single point] | –
O=C1NC2NC(=O)N([N+](=O)[O-])C2N1 (stereo not drawn) | inconclusive: 39.8 µM [inhibitor, single point] | –
CN1C[C@H](C(=O)N[C@]2(C)O[C@@]3(O)[C@H]4CCCN4C(=O)[C@H](Cc4ccccc4)N3C2=O)C[C@H]2c3cccc4[nH]cc(c34)C[C@@H]21 | inconclusive: 17.8 µM [inhibitor, single point] | –
CCCCn1c(N)c(C(=O)OCC2CCCO2)c2nc3ccccc3nc21 (stereo not drawn) | inconclusive: 22.4 µM [inhibitor, partial curve] | –
O=C(c1cn(Cc2ccccc2)c2ccccc12)C1CC1 | – | inactive: -20.3%
COc1ccc2nc(N3CCN(C(=O)CS(=O)(=O)c4ccc(C)cc4)CC3)sc2c1 | inconclusive: 10 µM [inhibitor, partial curve] | –
c1ccc2cc(C3N4CCCN34)ccc2c1 (stereo not drawn) | – | inactive: -5.47%
COc1cc(C(=S)N2CCOCC2)cc(OC)c1OC(=O)Cc1ccccc1 | inconclusive: 39.8 µM [inhibitor, single point] | –
CCCCCCCC(=O)NC(Oc1ccccc1[N+](=O)[O-])C(Cl)(Cl)Cl (stereo not drawn) | – | inactive: -7.42%
CCN1C(=O)C(=C/C=C/c2ccco2)C(=O)N(CC)C1=S | active: 15.8 µM | –
NC(N)=Nc1ccc2[nH]c3c(c2c1)C[C@@]1(O)[C@H]2Cc4ccc(O)c5c4[C@@]1(CCN2CC1CC1)[C@H]3O5 | – | inactive: 1.29%
NNC(=O)CN1C(=O)CN=C(c2ccccc2)c2cc(Br)ccc21 | – | inactive: 9.78%
CCc1ccc(NC(=O)c2ccc3oc(=O)n(Cc4ccccc4)c3c2)cc1 | inconclusive: 22.4 µM [inhibitor, single point] | –
CCCc1nnc(NC(=O)CCC(=O)N2CCC3(CC2)OCCO3)s1 | – | inactive: -1.1%
C[C@H]1O[C@@H](O[C@H]2[C@@H](O)C[C@H](O[C@H]3[C@@H](O)C[C@H](O[C@H]4CC[C@]5(C)C6CC[C@]7(C)[C@@H](C8=CC(=O)OC8)CC[C@]7(O)C6CC[C@@H]5C4)O[C@@H]3C)O[C@@H]2C)C[C@H](O)[C@@H]1O (stereo partly drawn) | inconclusive: 7.08 µM [inhibitor, partial curve] | –
CN1/C(=C\C=Nc2ccccc2)C(C)(C)c2ccccc21 | inconclusive: 12.6 µM [inhibitor, partial curve] | –
CC[C@@H](CO)NC(=O)[C@@H]1C=C2c3cccc4[nH]cc(c34)C[C@H]2N(C)C1 | inconclusive: 5.01 µM [inhibitor, single point] | –
CN(C)c1ccc(/C=C2\CCCN=C2c2cccnc2)cc1 | inconclusive: 15.8 µM [inhibitor, partial curve] | –
Cc1cc2ccccc2n1CCNC(=O)Cc1ccccc1 | inconclusive: 15.8 µM [inhibitor, partial curve, poor fit] | –

SMILES | Potency | activity, negative = inhibition
Cc1c(C(c2ccc(O)cc2)c2c(O)c3ccccc3oc2=O)c(=O)n(-c2ccccc2)n1C (stereo not drawn) | inconclusive: 15.8 µM [inhibitor, single point] and inconclusive: 14.1 µM [inhibitor, partial curve] | –
CCNC(=O)O/N=C(\C)c1sc(-c2ccccc2)nc1C | inconclusive: 17.8 µM [inhibitor, single point] | –
CC1=NN(c2ccccc2)C(=O)C1/C=C1\C(=O)NC(=O)N(c2ccc(C)c(C)c2)C1=O (stereo not drawn) | active: 11.2 µM | –
Cc1ccc(N2C(=O)CC(=O)NC2=O)cc1 | inconclusive: 12.6 µM [inhibitor, partial curve] | –
Cc1ccc(NN=C2C(=O)OC(C)(C)OC2=O)c(C)c1 | inconclusive: 25.1 µM [inhibitor, partial curve] | –
C/C(=C\C=C/[C@@H](C)C(=O)O)[C@H]1CN[C@H](C(=O)O)[C@@H]1CC(=O)O | inconclusive: 22.4 µM [inhibitor, partial curve] | –
Cc1ccc(-n2c(/C=C/c3cccc(C(F)(F)F)c3)nc3ccccc3c2=O)cc1 | – | inactive: 3.62%
CC(=O)c1ccc(NC(=O)c2sc3nc4c(cc3c2N)N2CCC4CC2)cc1 | inconclusive: 3.16 µM [inhibitor, full curve] | –
CCCCN1C(=O)/C(=C/C=C/c2ccco2)C(=O)NC1=S | active: 15.8 µM | –
O=C(O)c1nn(Cc2ccc(Cl)cc2Cl)c2ccccc12 | inactive | –
CCn1nc(-c2ccccc2)nc2c(=O)n(C)c(=O)nc1-2 | active: 15.8 µM | –
N=C1/C(=C/c2ccc(OC(=O)c3ccco3)cc2)C(=O)N=C2SC=CN12 | inconclusive: 12.6 µM [inhibitor, partial curve] | –
CC(C)(C)c1cc(C=C(C#N)C#N)cc(C(C)(C)C)c1O | active: 15.8 µM | –
N=C1c2ccccc2CN1c1ccc(F)c([N+](=O)[O-])c1 | inconclusive: 17.8 µM [inhibitor, partial curve] | –
Cc1cc(/C=C2\C(=O)NC(=O)N(Cc3ccco3)C2=O)c(C)n1-c1ccc(C(=O)O)cc1 | inconclusive: 10 µM [inhibitor, partial curve, poor fit] | –
Cc1ccc(N/N=C/c2c(O)n(-c3ccccc3)c(=O)[nH]c2=O)cc1 | active: 15.8 µM | –
CCN(CC)c1ccc(/C=C2/C(=O)NC(=O)N(Cc3ccco3)C2=O)cc1 | inconclusive: 8.91 µM [inhibitor, full curve] | –
COc1ccc(CCCc2nnc(SCC(=O)Nc3ccc(C)c(C)c3)o2)cc1 | inconclusive: 1 µM [inhibitor, full curve] | –
COC(=O)c1ccc(NC2=C(Cl)C(=O)OC2OC(=O)c2ccccc2)cc1 (stereo not drawn) | inconclusive: 20 µM [inhibitor, partial curve] | –
Cc1ccccc1CN1CCNCC1 | – | inactive: 0.0635%
CCCCN1C(=O)NC(=O)C2(Cc3c(nc4c(C)cccn4c3=O)N3CCc4ccccc4C32)C1=O (stereo not drawn) | inconclusive: 14.1 µM [inhibitor, partial curve] | –
